Laboratory results as given in PubChem BioAssay AID686978 (National Center for Advancing Translational Sciences (NCATS), 2013).
Hit rate of the full screen: of about 420,000 compounds, about 64,000 (15%) were called active. This list was built around the results that the source calls inconclusive (neither active nor inactive); the mix of calls is not that of the screen. The call rests on the fitted dose curve; in most records, active means well fitted inhibition curve with a large enough effect; inconclusive means small, poorly fitted or top-dose-only effect; inactive means flat fitted curve, though single readings scatter. Potencies of inconclusive entries are left out as doubtful fits.

assay: qHTS for Inhibitors of human tyrosyl-DNA phosphodiesterase 1 (TDP1): qHTS in cells in absence of CPT; settings: DT40 Tdp1-/- hTDP1 cells, no CPT, ATP luminescence, 48 h; activity change, negative = growth inhibition: at 46.2 µM (top of the series) unless noted; further: nearly all actives have a fitted effect of over 55% in size
Method in brief: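 Stably hTDP1-transfected Tdp1-null chicken DT40 cells were treated with library compounds minus camptothecin and grown for at least 48 hr at 37 °C, after which cellular ATP was quantified by luminescence.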
On the % scale 0 is the no-effect control and ±100 the full control effect; potency means the concentration at half of the fitted maximal effect; tags describe the fitted curve by direction and shape.

**Q.** Which Potency does the source give for `CCCSc1ccc([C@@H]2[C@@H]3C(=O)N(C)C(=O)[C@@H]3[C@]3(C(=O)OC)CCCN23)cc1OC` here?
**A.** inconclusive [inhibitor, single point]

**Q.** Which Potency does the source give for `O=C(CSCc1cnn(-c2ccccc2)c1-n1cccc1)NCc1ccccc1F` here?
**A.** inconclusive [inhibitor, single point]

**Q.** For `O=C(Nc1ccc(Cl)c(Cl)c1)Nc1ccccn1`, which “activity change, negative = growth inhibition” value is on record?
**A.** inactive: -12.7%

**Q.** With `COCCCn1c(C)nnc1SCc1ccc(C(C)(C)C)cc1` as the compound, how does the Potency read?
**A.** inconclusive [inhibitor, single point]

**Q.** For `CC(=O)Nc1ccc(Nc2ccc([N+](=O)[O-])cn2)cc1`, which Potency is on record?
**A.** active: 9.2 µM

**Q.** Which “activity change, negative = growth inhibition” value does the source give for `CNC(=O)C(=O)NCCC1CCCCN1S(=O)(=O)c1cccs1` (centres undefined) here?
**A.** inactive: 1.73%

**Q.** Which “activity change, negative = growth inhibition” value does the source give for `Cc1nn(C)cc1C(C)NC(=O)c1cc(COc2c(F)cccc2F)on1` (centres undefined) here?
**A.** inactive: 8.52%

**Q.** With `COc1ccc(C(=O)Nc2nc3ccc(OC)cc3s2)cc1` as the compound, how does the Potency read?
**A.** inconclusive [inhibitor, single point]

**Q.** For `COc1ccccc1CNc1ncnc2ccc(-c3cccnc3)cc12`, which Potency is on record?
**A.** active: 20.6 µM

**Q.** With `CCCN1CCN(c2ncnc3sc(C(=O)Nc4ccc(N(CC)CC)cc4C)c(C)c23)CC1` as the compound, how does the Potency read?
**A.** active: 14.6 µM

**Q.** With `CCOC(=O)c1c(C)[nH]c(N=Nc2cccc(OC)c2)c1C` as the compound, how does the Potency read?
**A.** inconclusive [inhibitor, single point]

**Q.** Which Potency does the source give for `CC(C)C[C@H](NC(=O)c1nc[nH]c1C(=O)N1CCN(C(=O)OC(C)(C)C)CC1)C(=O)OC(C)(C)C` here?
**A.** inconclusive [inhibitor, single point]

**Q.** For `CCc1ccc(-n2c(=O)c3c4c(sc3n(CC(=O)NCCCOC)c2=O)CCC4)cc1`, which Potency is on record?
**A.** inconclusive [inhibitor, partial curve]

**Q.** Which Potency does the source give for `CC[C@@H](C)[C@H](NS(=O)(=O)c1cccc2ccccc12)C(=O)N[C@H](C=O)Cc1c[nH]c2ccccc12` here?
**A.** active: 5.28 µM

**Q.** For `CC(C)C[C@H]1CNC(=O)C(=O)N1C[C@H]1CCCN1C[C@H](Cc1ccc(O)cc1)N1C[C@H](CC(C)C)N(CC2CCCCCC2)C(=O)C1=O`, which Potency is on record?
**A.** inconclusive [inhibitor, single point]

**Q.** For `O=C(NCCNC(=O)c1cccc(O)c1)c1cccc(O)c1`, which activity change, negative = growth inhibition is on record?
**A.** inconclusive: -36.3% [inhibitor]

**Q.** Which Potency does the source give for `CCOc1cc2c(C#N)c(N3CCCCC3)nc(N)c2c(N)n1` here?
**A.** inconclusive [inhibitor, single point]

**Q.** With `Cc1sc(N)c(C(=O)c2ccccc2Cl)c1C` as the compound, how does the activity change, negative = growth inhibition read?
**A.** inconclusive: -30.2% [inhibitor]

**Q.** With `Cc1ccc2oc(C(=O)Nc3ccc(S(=O)(=O)N(C)Cc4ccccc4)cc3)cc(=O)c2c1` as the compound, how does the Potency read?
**A.** inconclusive [inhibitor, partial curve]
